Data from PubChem BioAssay (NCI).
“And” between values parts separate entries of the source, which are not always exact repeats. Identical values can stand only once.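 Interpolation was linear, between the two tested concentrations surrounding the appropriate level; five concentrations were tested over 48 hours in 96-well plates. GI50 is the concentration that inhibits growth by half. TGI marks complete inhibition of growth.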

system: NCI-H322M lung; experiment: DTP human tumour cell line panel, 48 h

SMILES	TGI	GI50
COc1c(-c2cccs2)oc2c(CC(=O)O)cccc2c1=O	> 100 µM	
C[C@]1(C(=O)O)N[C@H](C(=O)O)CS1	> 1000 µM	> 1000 µM
CC1(C)O[C@H]2OC(CO)C(OS(C)(=O)=O)[C@H]2O1 (some centres undefined)	> 100 µM	
c1cncc(-c2nc3ccccc3s2)c1	> 100 µM	> 100 µM
Cn1cc(-c2nc(-c3c[nH]c4ccncc34)cs2)c2cc(F)ccc21	3.02 µM	1.65 µM
COc1ccc(SC2c3ccc(C)cc3Oc3nc(N)c(C#N)c(N)c32)cc1 (centres undefined)	3.04 µM	1.67 µM
COc1cc(/C=C2\N=C(C)N(n3c(-c4ccccc4)nc4ccccc4c3=O)C2=O)cc(OC)c1OC	> 100 µM	
COc1ccc(S(=O)(=O)Nc2ccc(-c3csc(N4C(=O)/C(=C/c5ccccc5)N=C4c4ccccc4)n3)cc2)cc1Cl	> 100 µM	
COc1ccc2nc(NCN3C(=O)c4ccccc4C3=O)sc2c1	> 100 µM	
c1ccc(CCN2CCN=C2Cc2ccccc2)cc1	> 100 µM	
CC1C2CC(CC2N)C1(C)C (centres undefined)	> 100 µM	
O=C(NCCN1CCC(O)CC1)c1cc2c(o1)C(=O)c1ccccc1C2=O	0.31 µM	0.165 µM
CC(=O)NC(C)c1ccc(N=NN2CCCC2)cc1 (centres undefined)	> 100 µM	
NC(=O)CCC(NC(=O)c1cccc2c(=O)c3ccccc3[nH]c12)C(=O)O (centres undefined)	> 100 µM	
Clc1cc(OCC23CC4CC(CC(C4)C2)C3)nc(OCC23CC4CC(CC(C4)C2)C3)n1	> 100 µM	
O=C(Nc1ccc2[nH]c(C(=O)N3CC(CCl)c4c3cc([N+](=O)[O-])c3ccccc43)cc2c1)c1cc2ccccc2o1 (centres undefined)	> 1100 µM	> 1100 µM
CCOC(=O)Cn1nnc2cc(Nc3nc4ccccc4nc3C(=O)OCC)ccc21	> 100 µM	
CCCCC1(N=[N+]=[N-])C(=O)C2C=CC=C3c4ccccc4N(C1=O)C32 (centres undefined)	> 31.6 µM	
O=c1cc(-c2ccccc2)[nH]c2c(Cl)cccc12	> 100 µM	
C=CC[C@@H]1C=C[C@@H](C(=O)OC)n2c(=O)n(-c3ccccc3)c(=O)n21	> 100 µM	
CC1(C)CCC[C@]2(C)c3cc(O)ccc3CC[C@@H]12	33.4 µM	18.3 µM

SMILES	TGI	GI50
CC(=O)OC1CC[C@@]2(C)C(CC[C@]3(C)C2CC=C2[C@@H]4CC(C)(C)CCC4(C)CCC23C)[C@@]1(C)C(=O)O (some centres undefined)	36.8 µM	
CCCCCCCC(=O)OCC(C[As](=O)(O)O)OC(=O)CCCCCCC (centres undefined)	29.4 µM	
COc1ccc(/C=N\NC(=O)Nc2cccc3ccccc23)cc1	> 100 µM	
Cc1cc(Oc2cnc(=O)[nH]c2)cs1	> 100 µM	
COc1c2c(c(CC=C(C)C)c3oc(=O)c(-c4ccc(O)cc4)c(O)c13)OC(C)(C)C=C2	> 100 µM	
CN(C)C(=S)/N=c1\ss/c(=N\C(=S)N(C)C)n1-c1ccc(Cl)cc1	> 100 µM	
COc1ccc(/C=N/n2cnc3c(c2=O)S/C(=C2/SC(=S)N(c4ccc(C)cc4)C2=O)N3c2ccccc2)cc1	> 100 µM	
O=C(O)CN(CC(=O)O)Cc1ccn(-c2cccc(-n3ccc(CN(CC(=O)O)CC(=O)O)n3)n2)n1	> 100 µM	
COc1cc2cc3c4c(cc(OC)c(OC)c4c2cc1OC)CCN3C(=O)N(C)C	> 100 µM	
Cc1ccc(C(=O)N2CCN(C(=O)c3ccc(C)cc3)c3ccccc32)cc1	> 100 µM	
CCCCOC(=O)c1ccc(NC(=O)CCl)cc1	24 µM	11.6 µM
COc1nc2ccc(CNc3ccc(C(=O)O)cc3)cc2nc1OC	> 10 µM	
COc1ccc(-c2nnc(CCCCCCCCc3nnc(-c4ccc(OC)cc4)n3N)n2N)cc1	> 100 µM	
Cc1ccc(C(=O)/C(=C\c2ccc([N+](=O)[O-])cc2)S(=O)Cc2ccc(F)cc2)cc1 (centres undefined)	4.44 µM	1.78 µM
CN(C(=O)C12C3(C(=O)C(C)(C)C)C4C5(C#N)C3C1(C(=O)C(C)(C)C)C5C42C(=O)C(C)(C)C)C(C)(C)C (centres undefined)	> 50 µM	
O=C1C2CC=CCC2C(=O)C12CCc1ccccc12 (centres undefined)	> 100 µM	
COC1=C2C[C@H](O)C(C)C[C@@]2(OC)OC1=O (some centres undefined)	> 100 µM	
O=C1c2cc(-c3ccccc3)ccc2-c2c1c1ccc([N+](=O)[O-])cc1c(=O)n2CCCBr	> 50 µM	> 50 µM
OC(C1CO1)C(O)C1CO1 (centres undefined)	150 µM and 325 µM	110 µM
CC(C)(C)OC(=O)N1Cc2cc(O)ccc2C[C@H]1C(=O)O	> 100 µM	
COc1cc2c(cc1OC(=O)c1cc3ccccc3[nH]1)N=C[C@@H]1CCCN1C2=O	6.73 µM	

SMILES	TGI	GI50
COC(=O)C(Cc1ccccc1)NC(=O)c1ccc(CNC(=S)NCc2cccc(CNC(=S)NCc3ccccc3)c2)cc1 (centres undefined)	> 62.5 µM	
CCOC(=O)NC1=C(N2CC2)C(=O)C(NC(=O)OCC)=C(N2CC2)C1=O	25 µM and 49 µM	21.8 µM
COC(=O)[C@@]1(O)CC(C)C=C1C=O (some centres undefined)	> 100 µM	
CCOc1cc2c(cc1O)CC[C@@H]1[C@@H]2CC[C@]2(C)C(OS(=O)OC3CC[C@@H]4[C@H]5CCc6cc(O)c(OCC)cc6[C@@H]5CC[C@@]34C)CC[C@@H]12 (some centres undefined)	> 100 µM	
C[C@@H](NC(=O)[C@@H](CC(=O)N1CCC(N2CCCCC2)CC1)N1C(=O)[C@@H](N2C(=O)OC[C@@H]2c2ccccc2)[C@H]1/C=C/c1cccc(Cl)c1)c1ccccc1	15.7 µM	3.42 µM
CCOc1ccc2nc(-c3cccc(OCC(=O)NC(C)C)c3)nc(Nc3ccc(-c4cn[nH]c4)cc3)c2c1	3.44 µM	0.552 µM
O=C1NC(=O)C(c2ccc(Cl)cc2)=C1Nc1ccc(Cl)c(C(=O)O)c1	> 25 µM	> 25 µM
COc1ccc(NCc2cnc3nc(N)nc(N)c3c2C)cc1	> 100 µM	
COc1ccc(OC)c(NCC#N)c1	> 100 µM	
CCC(=O)C(C)C(=O)C(=O)C(=O)OC (centres undefined)	> 100 µM	
CCO/C=C1\N=C(C(Cl)c2ccccc2)OC1=O (centres undefined)	> 100 µM	
CCOC(=O)c1nc2cc(C(F)(F)F)ccc2nc1Nc1ccc(F)cc1	> 100 µM	
CCCCCCCCC(O)C#CC(N)=O (centres undefined)	28 µM	
NC(=O)C[C@H](NC(=O)C1(NC(=O)[C@H](Cc2ccc(CP(=O)(O)O)cc2)NC(=O)C(=O)O)CCCCC1)C(=O)NCCCc1cccc2ccccc12	> 10 µM	
Cc1[nH]c(=O)nc2nc3ccc(Cl)cc3c(NC(C)(CO)CO)c12	> 100 µM	
C[C@]12CC[C@H](O)CC1=CC[C@@H]1[C@@H]2CC[C@]2(C)c3nc(Cl)ccc3C[C@@H]12	> 100 µM	
O=C(/C=C/c1cccc([N+](=O)[O-])c1)c1ccc(O)c(CN2CCN(c3cc4c(cc3F)c(=O)c(C(=O)O)cn4C3CC3)CC2)c1	11.6 µM	2.86 µM
Cc1cc(Nc2ccc(F)cc2)nc(N2CCN(c3ccnc4cc(Cl)ccc34)CC2)n1	> 100 µM	> 100 µM
Nc1nc2ccc3[nH]ncc3c2c2c1CCCC2	6.77 µM	1.6 µM
